Sequences and labels used below:
B1: Caulobacter ParB omega fusion; a variant is named by its letters at X, in order, B8GW30 (parent)
chain: MESVVVGEPGMSEGRRGLGRGLSALLGEVDAAPAQAPGEQLGGSREAPIEILQRNPDQPRRTFREEDLEDLSNSIREKGVLQPILVRPSPDTAGEYQIVAGERAWRAAQRAGLKTVPIMVRELDDLAVLEIGIIENVQRADLNVLEEALSYKVLMEKFERTQENIAQTIGKSXSHVANXMRLLXLPDEVQSYLVSGELTAXHARAIAAAADPVALAKQIIEGGLSVRETEALARKAPNLSAGKSKGGRPPRVKDTDTQALESDLSSVLGLDVSIDHRGSTGTLTITYATLEQLDDLCNRLTRGI

Whole data set: some 81,000 sequences, median “one-hybrid fitness for binding NBS DNA” near -0.1, cut for the highest 2% near 0.36. This is one part of the list.

The test covers variants of B1. Nature of the test: one-hybrid fitness for binding NBS DNA (the Noc-binding site; scaled: cognate 1, non-cognate 0); higher = stronger binding. The conditions noted are these: with NBS DNA site. In outline:
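On M9-minus-histidine containing 0.1 mM IPTG and 5 mM 3-AT, E. coli USO cells with a HIS3 reporter, site 19 bp from the promoter, grew 48 hours at 37°C to select Caulobacter ParB libraries randomised at four specificity codons. Plasmids from before and after were Illumina-sequenced, with three replicate libraries pooled and variants under 10 reads left out. Fitness is the log change in variant-to-wild-type read ratio, rescaled against cognate and non-cognate.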
For LSMS, the “one-hybrid fitness for binding NBS DNA” value is no more than 0.2.
Regarding KQSL, the “one-hybrid fitness for binding NBS DNA” value was no more than 0.2.
Under RCIK stands no more than 0.2; under LVSS, no more than 0.2.
Take PPSS: the “one-hybrid fitness for binding NBS DNA” value was no more than 0.2.
Consider LKTY, for which the “one-hybrid fitness for binding NBS DNA” value is no more than 0.2.
The same measure for EQWV: no more than 0.2; for RWQP: no more than 0.2.
In the case of YRYM, the “one-hybrid fitness for binding NBS DNA” value is no more than 0.2.
The same measure for SLIW: no more than 0.2.
The same measure for VNSM: no more than 0.2.
Under RMLA stands no more than 0.2; under SKTW, no more than 0.2.
In the case of HKMG, the “one-hybrid fitness for binding NBS DNA” value is no more than 0.2.
Regarding WGDC, the “one-hybrid fitness for binding NBS DNA” value is no more than 0.2.
WLTS: the “one-hybrid fitness for binding NBS DNA” value was no more than 0.2.
The same measure for TFPL: no more than 0.2.
Regarding CVCS, the “one-hybrid fitness for binding NBS DNA” value was no more than 0.2.
For the variant AIDG, the “one-hybrid fitness for binding NBS DNA” value is no more than 0.2.
SIQE: the “one-hybrid fitness for binding NBS DNA” value is no more than 0.2.
Under QRKW stands 0.411; under CQPC, no more than 0.2; under TEIS, no more than 0.2.
For LTHN, the “one-hybrid fitness for binding NBS DNA” value is no more than 0.2.
Consider TYPS, for which the “one-hybrid fitness for binding NBS DNA” value was no more than 0.2.
The same measure for DLRN: no more than 0.2; for QCLE: no more than 0.2; for KGSR: no more than 0.2.
TCIS: the “one-hybrid fitness for binding NBS DNA” value was no more than 0.2.
Take TGLW: the “one-hybrid fitness for binding NBS DNA” value was no more than 0.2.
The same measure for WKHG: no more than 0.2; for HSHR: no more than 0.2.
Under PVMT stands no more than 0.2.
As to GERW, the “one-hybrid fitness for binding NBS DNA” value was no more than 0.2.
In the case of CVQE, the “one-hybrid fitness for binding NBS DNA” value is no more than 0.2.
The same measure for DIRK: no more than 0.2.
The same measure for QAFE: no more than 0.2; for VYAN: no more than 0.2; for RHPM: no more than 0.2.
The same measure for HCGM: no more than 0.2; for QLPK: no more than 0.2.
As to ARAC, the “one-hybrid fitness for binding NBS DNA” value is no more than 0.2.
Turning to EACR, the “one-hybrid fitness for binding NBS DNA” value is no more than 0.2.
For the variant RTTI, the “one-hybrid fitness for binding NBS DNA” value was no more than 0.2.
Under DRNG stands no more than 0.2; under KYPQ, no more than 0.2; under RMRK, 0.223.
The same measure for NIRC: no more than 0.2.
Under PMDT stands no more than 0.2; under TRLN, no more than 0.2.
Regarding DDKH, the “one-hybrid fitness for binding NBS DNA” value is no more than 0.2.
As for QQWR, the “one-hybrid fitness for binding NBS DNA” value is 0.514.
Under LCHG stands no more than 0.2; under QAIH, no more than 0.2.
The same measure for DCHV: no more than 0.2; for CPDA: no more than 0.2.
Under AWYY stands no more than 0.2; under TVFR, no more than 0.2.
With TFER, the “one-hybrid fitness for binding NBS DNA” value is no more than 0.2.
As to EGDS, the “one-hybrid fitness for binding NBS DNA” value is no more than 0.2.
As to PPCC, the “one-hybrid fitness for binding NBS DNA” value was no more than 0.2.
Take QEEF: the “one-hybrid fitness for binding NBS DNA” value was no more than 0.2.
Under CYHS stands no more than 0.2.
Under WRAP stands no more than 0.2; under PFPQ, no more than 0.2; under CNMP, no more than 0.2.
The same measure for RLFF: no more than 0.2.
Take LMKR: the “one-hybrid fitness for binding NBS DNA” value is no more than 0.2.
On to LQLS, for which the “one-hybrid fitness for binding NBS DNA” value is no more than 0.2.
For LGIC, the “one-hybrid fitness for binding NBS DNA” value is no more than 0.2.
HSME: the “one-hybrid fitness for binding NBS DNA” value was no more than 0.2.
Under RNGT stands no more than 0.2; under PYPM, no more than 0.2; under LLHE, no more than 0.2.
The same measure for RDPM: no more than 0.2; for QGYE: no more than 0.2; for PIMA: no more than 0.2.
The same measure for MSSC: no more than 0.2; for QDCV: no more than 0.2.
Turning to THHT, the “one-hybrid fitness for binding NBS DNA” value was no more than 0.2.
The same measure for QETP: no more than 0.2; for HLSM: no more than 0.2; for EKQT: no more than 0.2.
In the case of DYAS, the “one-hybrid fitness for binding NBS DNA” value is no more than 0.2.
Under DNYY stands no more than 0.2; under PHMV, no more than 0.2.
In the case of GATT, the “one-hybrid fitness for binding NBS DNA” value is no more than 0.2.
The same measure for MKYT: no more than 0.2; for GWKG: no more than 0.2; for YQRG: no more than 0.2.
Under EYSG stands no more than 0.2; under TNQG, no more than 0.2.
The same measure for WPTQ: no more than 0.2; for SVGC: no more than 0.2.
For MSIT, the “one-hybrid fitness for binding NBS DNA” value is no more than 0.2.
Under KIGS stands no more than 0.2.
For the variant VAND, the “one-hybrid fitness for binding NBS DNA” value is no more than 0.2.
The same measure for VYMT: no more than 0.2; for RDSD: no more than 0.2.
Take NKDI: the “one-hybrid fitness for binding NBS DNA” value was no more than 0.2.
Take RACL: the “one-hybrid fitness for binding NBS DNA” value is no more than 0.2.
The same measure for PTHK: no more than 0.2; for IPTY: no more than 0.2.
The same measure for HARP: no more than 0.2; for PNNL: no more than 0.2; for HDSW: no more than 0.2.
In the case of WATR, the “one-hybrid fitness for binding NBS DNA” value was no more than 0.2.
The same measure for NALG: no more than 0.2; for PGGP: no more than 0.2.
For the variant IWKS, the “one-hybrid fitness for binding NBS DNA” value was no more than 0.2.
The same measure for GRKS: no more than 0.2; for TAET: no more than 0.2; for VHNI: no more than 0.2.
Turning to TSSH, the “one-hybrid fitness for binding NBS DNA” value was no more than 0.2.
As to ASPF, the “one-hybrid fitness for binding NBS DNA” value is no more than 0.2.
Turning to CTNE, the “one-hybrid fitness for binding NBS DNA” value was no more than 0.2.
In the case of YMYL, the “one-hybrid fitness for binding NBS DNA” value was no more than 0.2.
LMVK: the “one-hybrid fitness for binding NBS DNA” value is no more than 0.2.
The same measure for QYKI: 0.289; for TPEE: no more than 0.2; for QGAG: no more than 0.2.
Regarding GYDC, the “one-hybrid fitness for binding NBS DNA” value is no more than 0.2.
Take QNLG: the “one-hybrid fitness for binding NBS DNA” value was no more than 0.2.
Under TFQI stands no more than 0.2.
For TCKT, the “one-hybrid fitness for binding NBS DNA” value is no more than 0.2.
As to SLWN, the “one-hybrid fitness for binding NBS DNA” value is no more than 0.2.
For RRIR, the “one-hybrid fitness for binding NBS DNA” value was 0.686.
Under RNQW stands no more than 0.2; under LICF, no more than 0.2; under CHHT, no more than 0.2.
Under TIHI stands no more than 0.2; under MCLC, no more than 0.2.
As for IKDG, the “one-hybrid fitness for binding NBS DNA” value is no more than 0.2.
As for GAKW, the “one-hybrid fitness for binding NBS DNA” value was no more than 0.2.
The same measure for NSQR: no more than 0.2; for KGRI: no more than 0.2.
DGAY: the “one-hybrid fitness for binding NBS DNA” value is no more than 0.2.
GKDW: the “one-hybrid fitness for binding NBS DNA” value is no more than 0.2.
Under MFDR stands no more than 0.2; under ETWS, no more than 0.2.
The same measure for MVYH: no more than 0.2.
Under IEPY stands no more than 0.2; under THYD, no more than 0.2.
WGSG: the “one-hybrid fitness for binding NBS DNA” value is no more than 0.2.
As to VWMI, the “one-hybrid fitness for binding NBS DNA” value was no more than 0.2.
The same measure for GYTM: no more than 0.2.
Take YAWI: the “one-hybrid fitness for binding NBS DNA” value is no more than 0.2.
The same measure for AATA: no more than 0.2.
With WYPG, the “one-hybrid fitness for binding NBS DNA” value is no more than 0.2.
Under PGRS stands no more than 0.2.
The same measure for DAHY: no more than 0.2.
The same measure for TLHE: no more than 0.2; for LNQQ: no more than 0.2.

(Values after a collection of fitness landscapes (doi:10.1016/j.celrep.2020.107928).)
